PubChem BioAssay AID686978 (National Center for Advancing Translational Sciences (NCATS), 2013)
Hit rate of the full screen: of about 420,000 compounds, about 64,000 (15%) were called active. This list was built around the results that the source calls inconclusive (neither active nor inactive); the mix of calls is not that of the screen. Calls come from the whole dose curve; as a rule, active = well fitted inhibition curve with a large enough effect; inconclusive = small, poorly fitted or top-dose-only effect; inactive = flat fitted curve, though single readings scatter. Potencies of inconclusive entries are left out as doubtful fits.
% is set by controls: 0 for no effect and ±100 for the full control effect; potency is the fitted concentration of half-maximal effect; tags give direction and shape of the fitted curve.

Test: qHTS for Inhibitors of human tyrosyl-DNA phosphodiesterase 1 (TDP1): qHTS in cells in absence of CPT; note: nearly all actives have a fitted effect of over 55% in size
Conditions: DT40 Tdp1-/- hTDP1 cells, no CPT, ATP luminescence, 48 h; activity change, negative = growth inhibition: at 46.2 µM (top of the series) unless noted
Procedure, shortened: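 Cells were dispensed at 400 per well, compounds added by pin tool, plates incubated ≥48 hr at 37 °C, then CellTiter-Glo added for 30 min at room temperature before luminescence reading. Line: DT40 Tdp1-/- complemented with hTDP1; camptothecin omitted.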
With `Cc1ccccc1OCCC(=O)OCC(=O)Nc1c(F)cccc1F` the Potency was “inactive”. With `CN1CCN(CCCNC(=O)c2ccc(/C=C3\Sc4ccccc4N(Cc4ccc(F)cc4)C3=O)cc2)CC1` the Potency was active: 16.4 µM. In the case of `COc1cc(OC)cc(C(=O)Nc2ccc(-n3cnnn3)c(C)c2)c1`, the Potency is reported as inconclusive [inhibitor, partial curve]. In the case of `CC(NC(=O)c1ccncc1)c1ccc(Cl)cc1Cl` (configuration not stated), the Potency is reported as inconclusive [inhibitor, single point]. For `CCCN(CC(=O)Nc1ccccc1C)C(=O)c1ccc(-c2ccccc2)cc1`, the Potency was inconclusive [inhibitor, single point]. In the case of `O=c1c2ccccc2nnn1CSc1nnc(C2COc3ccccc3O2)n1-c1ccccc1` (configuration not stated), the Potency is reported as inconclusive [inhibitor, single point]. For `Oc1ccc(-c2csc(Nc3ccccn3)n2)cc1O`, the Potency was active: 2.59 µM. In the case of `Cc1cc(OCCCn2ccnc2)cc(C)c1Cl`, the Potency is reported as inconclusive [inhibitor, single point]. With `c1ccc2nc(N3CCN(Cc4ccc5c(c4)OCO5)CC3)cnc2c1` the Potency was inconclusive [inhibitor, single point]. For `CC(O)(c1ccc(F)c(F)c1)c1nc(-c2ccccc2)cs1` (configuration not stated), the Potency was active: 13 µM. With `COc1ccc(Cn2nnnc2C(c2cc3ccc(OC)cc3[nH]c2=O)N2CCC(C)CC2)cc1` (configuration not stated) the Potency was inconclusive [inhibitor, single point]. In the case of `Cc1ccc(-n2nc3c(=O)n(C(C)C(=O)NCc4ccco4)nc(C)c3c2C)cc1` (configuration not stated), the Potency is reported as inconclusive [inhibitor, single point]. For `N#C/C(=C/c1ccc2c(c1)OCO2)C(=O)NCCc1c[nH]c2ccccc12`, the Potency was inconclusive [inhibitor, single point]. In the case of `COCCCNC(=S)N1CCN(c2ccc([N+](=O)[O-])cc2)CC1`, the Potency is reported as active: 8.2 µM. In the case of `O=C(COC(=O)CN1C(=O)NC2(CCCC2)C1=O)Nc1c(Cl)cccc1C(F)(F)F`, the Potency is reported as “inactive”. For `Cc1cc(-c2ccc(C(C)C)c(S(=O)(=O)N3CC(=O)Nc4ccccc43)c2)on1`, the Potency was “inactive”. With `Cc1ccc(Cl)cc1N1CCN(CCCNC(=O)c2ccc3nc(N4CCCCC4)sc3c2)CC1` the Potency was active: 11.6 µM. With `CCn1c2ccccc2c2cc(NC(=O)c3ccc(Br)o3)ccc21` the Potency was inconclusive [inhibitor, single point]. In the case of `O=C(CCCc1ccccc1)Nc1ccc(Br)cc1F`, the Potency is reported as inconclusive [inhibitor, single point]. With `O=C1OCCN1C(=O)[C@H]1[C@H](c2ccccc2)C(c2ccc(F)cc2)=NN1c1ccc(Br)cc1` the Potency was inconclusive [inhibitor, single point]. For `COc1ccc(C(=O)C2CCCN(C3Cc4ccccc4C3)C2)cc1OC` (configuration not stated), the activity change, negative = growth inhibition was inconclusive: -32.2% [inhibitor]. For `O=S(=O)(Cc1ccccc1)N1CCN(c2ncccn2)CC1`, the Potency was “inactive”. For `Cc1nc(CS(=O)(=O)c2ccc(Cl)cc2)sc1C(=O)O`, the Potency was “inactive”. For `NS(=O)(=O)c1cc2c(cc1C(F)(F)F)NC(Cc1ccccc1)NS2(=O)=O` (configuration not stated), the Potency was “inactive”. With `CCC(C)NC(=O)C1=CCN(S(=O)(=O)c2ccc(C)cc2)CC1` (configuration not stated) the Potency was “inactive”. With `O=C(NC1(C(F)(F)F)NC(=O)N(CCc2ccccc2)C1=O)c1ccc(Cl)cc1` (configuration not stated) the Potency was inconclusive [inhibitor, single point]. With `O=C(COC(=O)/C=C/c1ccc(S(=O)(=O)N2CCc3ccccc32)cc1)NC1CCS(=O)(=O)C1` (configuration not stated) the Potency was inconclusive [inhibitor, single point]. With `CCn1ccc2c(OCC(=O)Nc3ccccc3C(F)(F)F)cccc2c1=O` the Potency was active: 20.6 µM. With `Cc1nn(C)c(C)c1CN(Cc1nc(-c2cc(F)ccc2F)oc1C)C1CC1` the Potency was inconclusive [inhibitor, single point]. With `CC1C(=O)N2CCCc3cc(S(=O)(=O)NCc4ccc(F)cc4)cc1c32` (configuration not stated) the Potency was inconclusive [inhibitor, single point]. With `CC(C)CC(=O)Nc1cc2c3c(c1)C(C)C(=O)N3CCC2` (configuration not stated) the Potency was inconclusive [inhibitor, single point]. In the case of `O=C(CSc1cccc2cccnc12)N1CCCC1`, the Potency is reported as active: 5.17 µM. With `COc1ccc(NC(=O)CNc2ccc(OC)c(S(=O)(=O)N3CCOCC3)c2)cc1` the Potency was “inactive”. In the case of `Cc1ccc2nc(CCc3nc4ccc(C)cc4o3)oc2c1`, the Potency is reported as inconclusive [inhibitor, single point]. In the case of `CCCCc1c(C)[nH]c(C(=O)OCC)c1C`, the Potency is reported as inconclusive [inhibitor, full curve, poor fit]. In the case of `Oc1c(C(c2ccccc2)N2CCC(O)CC2)sc2nc(-c3ccco3)nn12` (configuration not stated), the Potency is reported as “inactive”. In the case of `Nc1ccccc1Nc1cc(-c2ccccc2)[nH]n1`, the Potency is reported as active: 13 µM. For `Cc1ccc(OCCn2c(=S)[nH]c3c(N)ncnc32)cc1`, the Potency was “inactive”. For `C/C(=N\NC(=O)c1ccncc1)c1cc2ccccc2oc1=O`, the Potency was inconclusive [inhibitor, single point]. In the case of `COc1ccc(CN(C)C(=O)c2cc(S(=O)(=O)NCc3ccccc3)ccc2C)c(OC)c1`, the Potency is reported as inconclusive [inhibitor, single point]. For `Cc1noc(C)c1CSCC(=O)OCC(=O)Nc1sccc1C#N`, the Potency was “inactive”. In the case of `O=C(CSc1nnc(CNc2ccccc2)o1)c1ccc2c(c1)OCCO2`, the Potency is reported as inconclusive [inhibitor, single point]. With `COC(=O)CC1Oc2ccc(Cl)cc2-n2cc(-c3ccccc3)nc21` (configuration not stated) the Potency was active: 13 µM. In the case of `CC(=O)Nc1ccc2c(COC(=O)CC3Sc4ccccc4NC3=O)cc(=O)oc2c1` (configuration not stated), the Potency is reported as inconclusive [inhibitor, partial curve, poor fit]. With `Cc1ccccc1NCCC(=O)Nc1ccc(Cl)cc1` the activity change, negative = growth inhibition was inconclusive: -30.4% [inhibitor]. With `Oc1ccc(/C=N/n2cc(-c3ccccc3)[nH]c2=S)cc1` the Potency was inconclusive [inhibitor, single point]. In the case of `COc1ccc(C2Nc3ccccc3C(=O)N2O)cc1OC` (configuration not stated), the Potency is reported as inconclusive [inhibitor, single point]. In the case of `COc1ccc(-c2coc3c(C(=O)NCc4ccccc4)cccc23)c(C)c1`, the Potency is reported as inconclusive [inhibitor, single point]. For `CSCCC(C(=O)NC1CCCC1)n1c(C2CCCC2)nc2ccccc21` (configuration not stated), the Potency was inconclusive [inhibitor, single point]. With `CC1CCN(C(=O)CCC(=O)Nc2ccc([N+](=O)[O-])cc2)CC1` the Potency was “inactive”. With `CN(CC(=O)Nc1cccc(F)c1)C(=O)c1cn(-c2ccccc2)nc1-c1ccc(F)cc1` the Potency was inconclusive [inhibitor, single point]. With `COc1ccc(N(C(=O)c2ccco2)C(C(=O)NC2CCCC2)c2cccs2)c(OC)c1` (configuration not stated) the activity change, negative = growth inhibition was inconclusive: -31.6% [inhibitor]. In the case of `CCCCOc1cccc(C(=O)N(Cc2ccc(C)o2)c2ccccn2)c1`, the Potency is reported as active: 9.2 µM. In the case of `CC1=C(C(=O)N(C)C)CC(CC(=O)NCc2cccs2)C(=O)N1Cc1ccc(F)cc1` (configuration not stated), the Potency is reported as inconclusive [inhibitor, single point]. With `O=C(COC(=O)c1ccncc1)c1ccc(Br)cc1` the Potency was “inactive”. With `O=C(CN(C(=O)c1csnn1)c1cccc2c1CCCC2)NCc1ccccc1` the Potency was “inactive”. For `O=C(NCC1COc2ccccc2O1)c1ccc(NC(=O)c2ccco2)cc1` (configuration not stated), the Potency was inconclusive [inhibitor, single point]. In the case of `COc1ccc(/C=C/C(=O)NCCc2c[nH]c3ccccc23)cc1OC`, the Potency is reported as inconclusive [inhibitor, single point]. For `COC(=O)[C@@]1(Sc2ccc(C)cc2)CC(=O)N(C(=O)c2ccccc2)[C@@H]1c1ccccc1`, the Potency was inconclusive [inhibitor, partial curve]. For `CCOC1=C(C#N)CC2(CC1)c1ccccc1-c1ccccc12`, the Potency was active: 23.1 µM. For `Cn1c(=O)c2[nH]c(CN(Cc3ccccc3)Cc3ccccc3)nc2n(C)c1=O`, the Potency was active: 14.6 µM. In the case of `CNC(=O)c1cccc2nc3ccccc3nc12`, the Potency is reported as inconclusive [inhibitor, single point]. In the case of `CC1CC(C)(C)NC(=S)N1CCC(=O)N1CCN(Cc2ccccc2)CC1` (configuration not stated), the Potency is reported as “inactive”. In the case of `CCOC(=O)C1=C(C)OC(N)=C(C#N)C1c1cc2ccccc2nc1N1CCCCC1` (configuration not stated), the Potency is reported as inconclusive [inhibitor, single point]. For `CC(C)[C@H](CO)N(Cc1cccc(F)c1)c1nc(Nc2cccc(Cl)c2)c2ncn(C(C)C)c2n1`, the Potency was inconclusive [inhibitor, single point]. In the case of `NC(=O)c1ccsc1NC(=O)COC(=O)Cc1ccc(F)cc1`, the activity change, negative = growth inhibition is reported as inconclusive: -30.2% [inhibitor]. For `Cc1ccc([N+](=O)[O-])c2c1C(N1CCCC1)C(C)(C)O2` (configuration not stated), the Potency was inconclusive [inhibitor, single point]. In the case of `Oc1ccc(CNCC2COc3ccccc3O2)cc1` (configuration not stated), the Potency is reported as inconclusive [inhibitor, full curve]. For `CCOC(=O)C(C#N)(Cc1ccc2ccccc2n1)Cc1ccc2ccccc2n1`, the Potency was inconclusive [inhibitor, single point]. For `CN1CCN(S(=O)(=O)c2ccc(NC(=O)c3ccccc3F)cc2)CC1`, the Potency was inconclusive [inhibitor, single point]. With `C/C(Sc1nnc(Cc2ccccc2)o1)=C(\O)c1ccccc1` the activity change, negative = growth inhibition was inconclusive: -32.2% [inhibitor]. In the case of `CC(C)NC(=O)C1C(c2ccc(C(F)(F)F)cc2)=Nc2ccccc2N1C(=O)c1cccc(C(F)(F)F)c1` (configuration not stated), the Potency is reported as inconclusive [inhibitor, single point].
